Assay results: PubChem BioAssay AID1745845 (National Center for Advancing Translational Sciences (NCATS), 2022)
The campaign covered roughly 360,000 compounds. About 2,600 (0.72%) were called active. The inconclusive results got no clear call from the source; some entries with a clear call stand among them for comparison. Calls follow the shape of the dose curve; as a rule, active = well fitted inhibition curve with a large enough effect; inconclusive = small, poorly fitted or top-dose-only effect; inactive = no such curve, though single readings can be large or run the other way. Where the call is inconclusive, the potency comes from a doubtful curve fit.

experiment: Primary qHTS for Inhibitors of ATXN expression; details: HEK-293 ATXN2-luciferase reporter, luminescence, 24 h; activity change, negative = inhibition: at 57 µM (top of the series); also: nearly all actives have a fitted effect of over 55% in size
In short: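 qHTS (up to 57 uM final) was run with 24 h compound exposure of reporter cells at 37 °C. Each well was multiplexed: SteadyGlo luminescence measured ATXN2-luciferase expression after a fluorogenic Gly-Phe-AFC viability readout (25 uM final).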
% is scaled to controls: 0 for no effect and ±100 for the full control effect; potency is read from the fitted curve at half-maximal effect; tags tell the direction and shape of the fitted curve.

SMILES | activity change, negative = inhibition | Potency
COc1ccc(/C=N/NC(=O)c2ccc3c(c2)OCO3)cc1 | inactive: 48.2% | 
Fc1ccc(/C=C2\CCCC3=C2Nc2ncnn2C3c2ccc(F)cc2)cc1 (stereo unspecified) |  | active: 25.1 µM
OC1(c2ccc(Cl)cc2)CCN(Cc2c[nH]c3ccccc23)CC1 |  | inconclusive: 12.6 µM [inhibitor, partial curve]
CCOC(=O)C(CC)(CC)C(=O)/C=C/c1ccc(OC)cc1 |  | inconclusive: 16.8 µM [inhibitor, partial curve, poor fit]
O=[N+]([O-])c1cccc(C2CC(c3ccccc3)=NN2c2ccccc2)c1 (stereo unspecified) | inactive: -11.9% | 
C/C=C(/C(=C/C)c1ccc(O)cc1)c1ccc(O)cc1 |  | inconclusive: 39.8 µM [inhibitor, single point]
COC(=O)[C@]12CCCCC=C1N(Cc1ccccc1)C(=O)[C@H](CC(=O)NCCCCc1ccccc1)C2 |  | inconclusive: 39.8 µM [inhibitor, single point]
CC(C)(C)OC(=O)N1CCN(C(=O)c2[nH]cnc2C(=O)N[C@@H](Cc2ccccc2)C(=O)OCc2ccccc2)CC1 |  | inconclusive: 39.8 µM [inhibitor, partial curve, poor fit]
NS(=O)(=O)c1ccc(Nc2nc(-c3ccc(F)cc3)cs2)cc1 |  | inconclusive: 15.8 µM [inhibitor, partial curve, poor fit]
c1cc(N[C@@H]2CCNC2)nc(-c2cnc3ccc(-c4cn[nH]c4)cn23)c1 |  | inconclusive: 48.5 µM [inhibitor, single point]
CC1=C(C(=O)N2CCCCCC2)CC(CC(=O)NCCCCc2ccccc2)C(=O)N1CCC1=CCCCC1 (stereo unspecified) |  | inconclusive: 39.8 µM [inhibitor, partial curve, poor fit]
CCN(CC)C(=O)c1sc2c(c1C)c(=O)n(Cc1ccccc1)c(=O)n2Cc1ccccc1C | inactive: 0% | 
COC(=O)C1C(=O)C2=C(CC1C)NC(C)=C(C(=O)OCCOc1ccccc1)C2c1ccc(C)o1 (stereo unspecified) | inactive: -3.03% | 
CC1(C(=O)NS(=O)(=O)c2cccs2)CCN1C(=O)C1CC1 (stereo unspecified) | inactive: -0.446% | 
Cc1ccsc1CCN1C(=O)N(c2ccccc2)C(=O)C1CC(=O)Nc1ccc(Cl)cc1 (stereo unspecified) |  | inconclusive: 39.8 µM [inhibitor, single point]
COCOCCn1cc(CN2CCS(=O)(=O)N(Cc3ccc(-c4ccc(Cl)nc4)cc3)C(C(C)C)C2=O)nn1 (stereo unspecified) |  | inconclusive: 20 µM [inhibitor, partial curve, poor fit]
CC1(C(=O)NS(=O)(=O)c2cccc(OC(F)F)c2)CCN1C(=O)C1CCCCC1 (stereo unspecified) | inactive: -3.01% | 
Cc1cccc(OCC(=O)Nc2ccc(N3CCN(C(=O)c4ccco4)CC3)cc2)c1 |  | inconclusive: 28.2 µM [inhibitor, partial curve]
CCc1ccc(-c2cc(C)no2)cc1S(=O)(=O)NCCCN1CCN(c2ccccc2)CC1 |  | inconclusive: 28.2 µM [inhibitor, single point]
CCc1cc2ccc(OC)cc2nc1SCC(=O)N1CCN(C(=O)c2ccco2)CC1 |  | inconclusive: 28.2 µM [inhibitor, single point]
Cc1ccc(CNC(=O)CCc2cn(C)c3ccccc23)cc1 | inactive: -2.9% | 
C#CCOCCOCCOCCNc1nc(N2CCN(C(=O)CCCCCCCCCCNC(=O)Cn3cc(C[C@@H](C)O)nn3)CC2)nc(N2CCN(C(=O)CCCCCCCCCCNC(=O)[C@@H]([C@H](C)CC)n3cc(CCCCCN)nn3)CC2)n1 |  | active: 20 µM

SMILES | activity change, negative = inhibition | Potency
Cc1ccc(C(C)C)c(OCc2ccc(C(=O)N/N=C/c3cccc(O)c3O)cc2)c1 |  | active: 2.99 µM
CCn1ncc(/C=C/C(=O)Nc2c(C)nn(Cc3ccc(Cl)cc3Cl)c2C)c1C |  | inconclusive: 17.8 µM [inhibitor, partial curve, poor fit]
CC(C)CC(=O)n1sc(NC(=O)c2ccccc2)nc1=O | inactive: -5.93% | 
COc1ccc2c(c1)c(=O)c(C(=O)c1ccccc1)cn2CC(=O)Nc1ccc2c(c1)OCO2 | inactive: 2.82% | 
COc1ccc2c(CNCCc3ccc(SC)cc3)c(C(=O)O)n(Cc3ccc(F)cc3)c2c1 |  | inconclusive: 39.8 µM [inhibitor, single point]
OC(CNc1nc(C(F)(F)F)nc2ccccc12)c1ccccc1 (stereo unspecified) | inactive: -18.1% | 
COc1ccc(C(=O)Nn2c(SCC(=O)N3CCC(C)CC3)nc3ccccc3c2=O)cc1 |  | inconclusive: 6.31 µM [inhibitor, partial curve, poor fit]
Cc1ccc(C(=O)O/N=C(\N)c2ccccn2)cc1 |  | active: 12.6 µM
CCc1ccc(CNC(=O)CCCn2ccc3cc(S(=O)(=O)N4CCCC4)ccc32)cc1 |  | inconclusive: 17.8 µM [inhibitor, partial curve, poor fit]
Cc1ccc(C2(C)NC(=O)N(CC(=O)Nc3cc(C)on3)C2=O)cc1 (stereo unspecified) | inactive: 17.8% | 
COc1ccc(C)cc1NC(=O)CCN1CCN(c2ccccc2)CC1 | inactive: -5.52% | 
O=C(C#Cc1ccccc1)c1cccc([N+](=O)[O-])c1 |  | active: 22.4 µM
Cc1cc2nc(SCC(=O)N(C)C)c3c(c2cc1C)CCCC3 |  | inconclusive: 25.1 µM [inhibitor, partial curve, poor fit]
N#Cc1c(C(F)(F)F)cc(=O)n2c1[nH]c1ccccc12 |  | inconclusive: 21.2 µM [inhibitor, partial curve]
COc1cccc(C(=O)N2C(C(C)C)COc3cc(Br)ccc3S2(=O)=O)c1 (stereo unspecified) |  | inconclusive: 35.5 µM [inhibitor, single point]
O=C1C=C(c2ccc(Cl)c(C(F)(F)F)c2)C[C@@H](c2ccc3c(c2)OCO3)C1 | inactive: -23.7% | 
CCCCC(=O)N(C)c1c(CC)nc2c(OCc3cccc(Cl)c3)cccn12 |  | inconclusive: 31.6 µM [inhibitor, single point]
CC(=O)Oc1cc(C(=O)OCC(=O)N2CCc3ccccc3C2)cc(OC(C)=O)c1OC(C)=O |  | inconclusive: 10 µM [inhibitor, partial curve, poor fit]
COc1ccc(COc2ccsc2C(=O)Nc2ccc(Cl)c(Cl)c2)cc1 |  | inconclusive: 35.5 µM [inhibitor, single point]
O=c1cc(-c2ccccc2)nc(Sc2ccc([N+](=O)[O-])cc2[N+](=O)[O-])[nH]1 | inactive: 20.2% | 
Cc1cccc(OC(=O)NCCOC(=O)N(O)c2ccc(Cl)cc2)c1 | inactive: -7.17% | 
Cc1ccc(NC(=O)c2ccco2)c(NC(=O)c2ccccc2)c1 | inactive: -0.639% | 

SMILES | activity change, negative = inhibition | Potency
CCCCn1c(CN2CCN(c3cccc(Cl)c3)CC2)nc2c1c(=O)n(C)c(=O)n2C |  | inconclusive: 31.6 µM [inhibitor, partial curve, poor fit]
CC(C)Oc1ccc(C(=O)/C=C2/C(=O)Nc3ccccc32)cc1 |  | inconclusive: 39.8 µM [inhibitor, single point]
Cc1ccc(CNC(=O)Cn2c(SCC(=O)Nc3ccc(F)cc3)nc3ccccc32)cc1 |  | inconclusive: 39.8 µM [inhibitor, partial curve, poor fit]
O=C(CCCn1c(SCc2cccc(F)c2)nc2ccccc2c1=O)NCC1CCCO1 (stereo unspecified) | inactive: -33.7% | 
Cc1nc2ccc(NC(=O)c3ccc(Cl)c([N+](=O)[O-])c3)cc2s1 | inactive: 20.5% | 
O=C(Nc1ccc(Oc2c(F)c(F)c(F)c(F)c2F)cc1)OC1CCN2Cc3ccccc3N=C12 (stereo unspecified) |  | inconclusive: 31.6 µM [inhibitor, partial curve, poor fit]
Cc1nn(CCc2nn[nH]n2)c2nc(-c3ccc(Br)cc3)cc(C(F)(F)F)c12 | inactive: -9.38% | 
CCCN1CCN(C(=O)c2c(Cl)cnn2C)CC1 | inactive: -2.49% | 
O=C(C1=C[C@@H](c2ccc(C(F)(F)F)cc2)C[C@@H](OCc2ccc(CO)cc2)O1)N1CCN(Cc2ccc3c(c2)OCO3)CC1 |  | inconclusive: 39.8 µM [inhibitor, single point]
Cc1ccc(NC(=O)CN2CCc3cc4c(cc3C2C)OCCCO4)cc1 (stereo unspecified) | inactive: -9.98% | 
Nc1ccc(S(=O)(=O)c2cc(O)c3ccccc3c2O)cc1 |  | inconclusive: 35.5 µM [inhibitor, single point]
COc1cccc(/C=C2\CCCCC2=O)c1 | inactive: 22% | 
COc1ccccc1C(=O)NNC1=C(C(=O)C(F)(F)F)CCC1 |  | inconclusive: 14.1 µM [inhibitor, partial curve, poor fit]
CCOC(=O)C1(C)CCN1C(=O)c1ccc(C(C)(C)C)cc1 (stereo unspecified) | inactive: 10.9% | 
Cc1cccc(-n2ccnc2SCC(=O)Nc2cccc3ccccc23)c1 |  | inconclusive: 31.6 µM [inhibitor, single point]
O=C(Nc1ccccc1)C1=C[C@@H](c2ccc(C(F)(F)F)cc2)C[C@@H](OCc2ccc(CO)cc2)O1 |  | inconclusive: 39.8 µM [inhibitor, partial curve, poor fit]
C=CCC[C@@H](Cc1ccc(F)cc1)C(=O)OCCNC(=O)[C@@H](CC=C)CC(=O)N(CCO)Cc1ccccc1 |  | inconclusive: 39.8 µM [inhibitor, single point]
Fc1cnc(N2CCN(c3ccccc3)CC2)nc1N1CCN(c2ccccc2)CC1 |  | inconclusive: 0.708 µM [inhibitor, partial curve, poor fit]
COc1ccc(-c2nc3nc(C)cc(C)n3c2Nc2c(C)cccc2C)cc1 |  | inconclusive: 35.5 µM [inhibitor, single point]
CCc1nnc2n1N=C(c1cccc([N+](=O)[O-])c1)CS2 |  | inconclusive: 1.5 µM [inhibitor, partial curve, poor fit]
Cc1cccc(-c2cc(C(=O)NCc3ccccn3)c3ccccc3n2)c1 | inactive: 31.6% | 
CCOc1ccc(-c2cn3c(n2)sc2cc(C(=O)NCCCN4CCCCCC4)ccc23)cc1 |  | inconclusive: 17.8 µM [inhibitor, partial curve, poor fit]
